The values below come from ChEMBL document CHEMBL1157539, “Thousands of chemical starting points for antimalarial lead identification” (Nature, 2010).

Molecules are shown by their SMILES. The full ranking holds about 13,000 compounds; the median of “IFI” is about 4, and the highest 2% start at about 17. This is one part of the list.

A short description of the test: GSK_TCMDC: Inhibition Frequency Index (IFI). The number of non-kinase HTS assays where a compound showed > 50 % inhibition, expressed as a percentage of the number of such assays in which the compound was tested (-0 is zero). Format: functional.
`C=C(C)COc1ccc(-c2n[nH]c(C(F)(F)F)c2-c2ccccc2OC)c(O)c1`: the IFI is 10.4%.
The figure for `COc1ccc(CCn2c(=N)c(C(=O)NCc3cccnc3)cc3c(=O)n4cccc(C)c4nc32)cc1` is 1.74%; for `O=C(NCCCN1CCC(NC(=O)c2ccc(-c3cccnc3)cc2)CC1)c1ccc(Cl)c(Cl)c1` it is 1.43%.
`O=C(Nc1ccc([N+](=O)[O-])cc1)Nc1nc2ccc(Cl)cc2s1` had an IFI of 15.7%.
The figure for `CCOc1cc(C(=O)NCCCN2CCN(c3cccc(Cl)c3)CC2)ccc1-c1nc2cc(Cl)c(F)cc2[nH]1` is 2.17%; for `CCCN(C(=O)c1ccccc1C)c1nnc(-c2cccc(C)c2)s1` it is 4.39%.
The figure for `O=C(NCC1CCN(Cc2ccc3c(c2)OCCO3)C1)c1cc(-c2ccccc2F)cs1` (stereo not drawn) is 6.12%.
As for `CCc1ccc(-n2c(=O)c3cccnc3n2CC(=O)NC2CCCC2)cc1`, the IFI came out at 2.78%.
The value for `COc1nc2c(CCN3CC[C@@H](NCc4cc(C#N)c5c(c4)CCO5)[C@@H](O)C3)ccnc2cc1F` was 4.85%; that for `COc1ccc(NC(=O)Nc2ccc(-c3ccccc3)cc2Cl)cc1N1CCN(C)CC1` was 9.92%.
The value for `N=c1n(Cc2ccc(Cl)cc2)c2ccccc2n1CC(O)c1ccc(Cl)c(Cl)c1` (stereo not drawn) was 12.5%; that for `C=CCOC1OC(COC(c2ccccc2)(c2ccccc2)c2ccccc2)C(OC(C)=O)C(OC(C)=O)C1NC(C)=O` (stereo not drawn) was 0.76%.
Molecule `CCn1cc(CN2CCCC(C(=O)Nc3ccc(-c4nc5ccccc5[nH]4)cc3)C2)cn1` (stereo not drawn) had an IFI of -0%.
The value for `CC(CO)(CO)NCc1cc2ccc3ccsc3c2c2ccccc12` was 7.52%; that for `OC(CN1c2ccccc2Sc2ccccc21)CN(C1CCCCC1)C1CCCCC1` (stereo not drawn) was 11.6%; that for `COc1c(C2=CCN(CCCCNC(=O)c3ccc(-c4ccc(C#N)cc4)cc3)CC2)c(C)cc2c1C(C)(C)CCC2(C)C` was 4.62%.
The value for `O=C(NC1CC1)C1CCN(Cc2cc3ccccc3n2Cc2ccc(Cl)cc2)CC1` was 7.02%.
The figure for `Cc1cccc2nc(-c3ccc(-c4ccc(CN5CCN(CC6CCCN(C)C6)CC5)cc4)cc3)[nH]c12` (stereo not drawn) is 7.04%; for `Cc1cccc2c(C(=O)NC3CCN(Cc4ccccc4)CC3)cc(-c3cccnc3)nc12` it is 1.92%; for `CCCC(C)NC[C@@H](O)[C@H](Cc1ccccc1)NC(=O)c1cc(C2CCCC2)cc(N2CCCCS2(=O)=O)c1` (stereo partly drawn) it is 6.77%.
On to `CCOc1cc(C)ccc1C1CCN(CCCCNC(=O)c2nc(-c3ccc(C(F)(F)F)cc3)[nH]c2C)CC1`, for which the IFI came to 1.44%.
The value for `Cc1cc(C(=O)N(Cc2ccc(-c3ccc(CNCCc4ccc(S(C)(=O)=O)cc4)cn3)cc2)C(C)CN(C)C)ccc1[N+](=O)[O-]` (stereo not drawn) was 1.4%.
`Cc1ccc(CNC(=O)[C@H](CCCN)Nc2nc(Nc3ccccc3)ncc2C)cc1` gave an IFI of 4.76%.
The figure for `CC(C)NC(=O)c1cccc(-c2cccc(OCCN3CCSCC3c3ccccc3)c2)c1` (stereo not drawn) is 7.55%; for `Nc1nc(-c2ccc3c(Nc4ccc(F)c(Cl)c4)ccnc3c2)cs1` it is 4.32%; for `COc1ccc2cc(C(=O)Nc3ccc4c(c3)CCN(C3CCC3)CC4)ccc2c1` it is 3.76%.
`COc1cc(NC2CCCC(NCc3cn(S(=O)(=O)c4ccccc4)c4ccccc34)C2)nc2ccccc12` (stereo not drawn) showed an IFI of 6.62%.
The molecule `COc1ccc(Nc2nccc(N3CCC(NC(=O)Nc4cccc(OC)c4)C3)n2)cc1` (stereo not drawn) came in with an IFI of 1.54%.
The value for `CCCc1ccc(S(=O)(=O)NC2CCN(C(=O)Nc3ccc(I)cc3)CC2)cc1` was 2.94%.
The figure for `CCCC(C)Nc1nc(C)cc(N[C@@H](CC(C)C)C(=O)NCCc2ccccc2)n1` (stereo partly drawn) is 6.82%.
The figure for `CC(=O)Nc1ccc(C(=O)Nc2cccc(-c3ccc(-c4nc5cc(F)ccc5[nH]4)cc3)c2)cn1` is 8.11%.
For the molecule `Clc1cccc(CNc2nc(NCCc3c[nH]cn3)nc(NC3CCCCC3)n2)c1`, the IFI turned out to be 0%.
`Cc1cnc(C(=O)Nc2ccc3c(c2)CCCN(Cc2c[nH]c4cnccc24)C3)cn1`: the IFI was 0%.
The figure for `CO/C(=C\C=C\c1cc2cc(Cl)c(Cl)cc2[nH]1)C(=O)NCCCN1CCN(Cc2ccccc2)CC1` is 15.8%.
The figure for `Nc1nc(N)c2c(Oc3cccnc3)cccc2n1` is 2.96%; for `Cc1cccc2nc(-c3cccc(-c4ccc(NC(=O)Cc5ccccn5)cc4)c3)[nH]c12` it is 3.48%.
For the molecule `C=C(C)CSc1nc2c(c(=O)n1CCc1ccccc1)C1(CCCC1)Cc1ccccc1-2`, the IFI was -0%.
The value for `NCCNc1ccc([N+](=O)[O-])cc1C(=O)Nc1cccc(Cl)c1` was 1.45%; that for `Cc1nc(NCCCn2ccnc2)cc(-c2cncc(-c3ccc(OC(F)(F)F)cc3)c2)n1` was 1.03%.
With `Fc1ccc2[nH]ccc(=NN=Cc3ccccc3Cl)c2c1`, the IFI stood at 0.72%.
The figure for `COc1ccc2nccc([C@@H](O)CN3CCC(NC(=O)c4ccc(Cl)c([N+](=O)[O-])c4)CC3)c2c1` is 4.38%; for `O=C(/C=C/c1ccc(Cl)c(Cl)c1)NCCCCCCN1CCN(C(=O)Nc2cccc(Cl)c2)CC1` it is 6.4%.
The figure for `CC(C)(CNC(=O)C1CCN(Cc2ccoc2)CC1)c1nc(-c2ccc(Cl)c(O)c2)c(-c2ccncc2)[nH]1` is -0%; for `CCc1ccc(C2CCN(CCCCNC(=O)c3ccc(NC(=O)c4ccc(Cl)cc4)cc3)CC2)c(OC(C)=O)c1` it is 6.36%; for `COc1ccccc1C(=O)N1CCN(Cc2cccs2)CC1` it is 0%.
The figure for `OC1CCCN(Cc2ccc(-c3cccc(-c4nc5cc(F)ccc5[nH]4)c3)cc2)C1` (stereo not drawn) is -0%.
In turn, `O=C(Nc1ccc(Cl)cc1)Nc1cccc(-c2cccc(-c3nc4ccccc4[nH]3)c2)c1` came in with an IFI of 4.04%.
The value for `CCCCNC(=O)[C@H](CC1CCCCC1)NC(=O)c1ccc(O)c(-c2ccc(Cl)c(Cl)c2)c1` was 2.96%.
